# Source: the supplement of paper PMC8728848
# The list shows a part of the results.
# B1: CGL3 (Coprinopsis cinerea) (protein)
# chain: MGHHHHHHHHSGFHILRLESTVDLSEPLKDNGIIVFQSDKLDLEPSPNLGPTGIDNTNVNLINAKGDVLLHIGIRRRENAFVFNSIPYGESRGPEERIPLEGTFGDRRDPSITVFDHPDRYQIMIDYKTVYYYKKRLEGRCEKVSYKINEGQTPPFSDVLGVTVLYFANVMPRAN
# Columns and labels:
# Test in all cases: glycan array binding signal (z-score within array); higher = stronger binding
# Details in all cases: glycan notation: IUPAC condensed, linker removed
# GalNAc(b1-3)GalNAc = target: GalNAc(b1-3)GalNAc
# Outline: (§1)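 From the Consortium for Functional Glycomics database, 3228 arrays were curated, keeping only those whose protein sequence was available. Binding is given as a within-array Z-score averaged across arrays sharing a protein sequence and across linkers. Negative Z-scores can be read as non-binding.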
# GalNAc(b1-4)GlcNAc = target: GalNAc(b1-4)GlcNAc
# Outline: as §1
# Glc(a1-4)Glc = target: Glc(a1-4)Glc
# Outline: as §1
# Glc(b1-4)Glc = target: Glc(b1-4)Glc
# Outline: as §1
# Glc(b1-6)Glc = target: Glc(b1-6)Glc
# Outline: as §1
# [1] = target: GlcNAc(b1-2)Gal(b1-3)GalNAc
# Outline: as §1
# GlcNAc(b1-3)Gal = target: GlcNAc(b1-3)Gal
# Outline: as §1
# [2] = target: GlcNAc(b1-3)Gal(b1-3)GalNAc
# Outline: as §1
# GlcNAc(b1-3)Gal(b1-4)Glc = target: GlcNAc(b1-3)Gal(b1-4)Glc
# Outline: as §1
# [3] = target: GlcNAc(b1-3)Gal(b1-4)GlcNAc
# Outline: as §1
# [4] = target: GlcNAc(b1-3)[GlcNAc(b1-6)]GalNAc
# Outline: as §1
# [5] = target: GlcNAc(b1-3)[GlcNAc(b1-6)]GlcNAc(b1-4)GlcNAc
# Outline: as §1
# [6] = target: GlcNAc(b1-4)GlcNAc(b1-4)GlcNAc
# Outline: as §1
# [7] = target: GlcNAc(b1-4)[GlcNAc(b1-6)]GalNAc
# Outline: as §1
# GlcNAc(b1-6)GalNAc = target: GlcNAc(b1-6)GalNAc
# Outline: as §1
# Kdn(a2-3)Gal(b1-3)GlcNAc = target: Kdn(a2-3)Gal(b1-3)GlcNAc
# Outline: as §1
# Kdn(a2-3)Gal(b1-4)GlcNAc = target: Kdn(a2-3)Gal(b1-4)GlcNAc
# Outline: as §1
# [8] = target: Man(a1-2)Man(a1-2)Man(a1-3)Man
# Outline: as §1
# [9] = target: Man(a1-2)Man(a1-2)Man(a1-6)[Man(a1-3)]Man
# Outline: as §1
# Man(a1-2)Man(a1-3)Man = target: Man(a1-2)Man(a1-3)Man
# Outline: as §1
# [10] = target: Man(a1-2)Man(a1-3)[Man(a1-2)Man(a1-6)]Man
# Outline: as §1
# [11] = target: Man(a1-2)Man(a1-3)[Man(a1-2)Man(a1-6)]Man(a1-6)[Man(a1-2)Man(a1-2)Man(a1-3)]Man(b1-4)GlcNAc(b1-4)GlcNAc
# Outline: as §1
# [12] = target: Man(a1-2)Man(a1-3)[Man(a1-2)Man(a1-6)]Man(a1-6)[Man(a1-3)[Man(a1-6)]Man(a1-6)]Man(b1-4)GlcNAc(b1-4)GlcNAc
# Outline: as §1
# [13] = target: Man(a1-2)Man(a1-3)[Man(a1-6)]Man(a1-6)[Man(a1-2)Man(a1-3)]Man(b1-4)GlcNAc(b1-4)GlcNAc
# Outline: as §1
# [14] = target: Man(a1-2)Man(a1-6)[Man(a1-3)]Man(a1-6)[Man(a1-2)Man(a1-2)Man(a1-3)]Man(b1-4)GlcNAc(b1-4)GlcNAc
# Outline: as §1
# Man(a1-3)[Man(a1-6)]Man = target: Man(a1-3)[Man(a1-6)]Man
# Outline: as §1
# [15] = target: Man(a1-3)[Man(a1-6)]Man(a1-6)[Man(a1-3)]Man(b1-4)GlcNAc(b1-4)GlcNAc
# Outline: as §1
# Neu5Ac(a2-3)Gal = target: Neu5Ac(a2-3)Gal
# Outline: as §1
# [16] = target: Neu5Ac(a2-3)Gal(b1-3)GalNAc
# Outline: as §1
# [17] = target: Neu5Ac(a2-3)Gal(b1-3)GalNAc6S
# Outline: as §1
# [18] = target: Neu5Ac(a2-3)Gal(b1-3)GlcNAc
# Outline: as §1
# [19] = target: Neu5Ac(a2-3)Gal(b1-3)[Fuc(a1-4)]GlcNAc
# Outline: as §1
# [20] = target: Neu5Ac(a2-3)Gal(b1-3)[Neu5Ac(a2-3)Gal(b1-4)]GlcNAc
# Outline: as §1
# [21] = target: Neu5Ac(a2-3)Gal(b1-3)[Neu5Ac(a2-6)]GalNAc
# Outline: as §1
# Neu5Ac(a2-3)Gal(b1-4)Glc = target: Neu5Ac(a2-3)Gal(b1-4)Glc
# Outline: as §1
# [22] = target: Neu5Ac(a2-3)Gal(b1-4)GlcNAc
# Outline: as §1
binder,measurement,setting,value
B1,glycan array binding signal (z-score),GalNAc(b1-3)GalNAc,-0.183
same,glycan array binding signal (z-score),GalNAc(b1-4)GlcNAc,6.64
same,glycan array binding signal (z-score),Glc(a1-4)Glc,0.005
same,glycan array binding signal (z-score),Glc(b1-4)Glc,-0.166
same,glycan array binding signal (z-score),Glc(b1-6)Glc,-0.071
same,glycan array binding signal (z-score),[1],-0.197
same,glycan array binding signal (z-score),GlcNAc(b1-3)Gal,-0.132
same,glycan array binding signal (z-score),[2],-0.156
same,glycan array binding signal (z-score),GlcNAc(b1-3)Gal(b1-4)Glc,-0.125
same,glycan array binding signal (z-score),[3],-0.163
same,glycan array binding signal (z-score),[4],-0.202
same,glycan array binding signal (z-score),[5],-0.214
same,glycan array binding signal (z-score),[6],8.4
same,glycan array binding signal (z-score),[7],-0.205
same,glycan array binding signal (z-score),GlcNAc(b1-6)GalNAc,-0.187
same,glycan array binding signal (z-score),Kdn(a2-3)Gal(b1-3)GlcNAc,-0.119
same,glycan array binding signal (z-score),Kdn(a2-3)Gal(b1-4)GlcNAc,-0.199
same,glycan array binding signal (z-score),[8],0.088
same,glycan array binding signal (z-score),[9],-0.193
same,glycan array binding signal (z-score),Man(a1-2)Man(a1-3)Man,-0.117
same,glycan array binding signal (z-score),[10],-0.172
same,glycan array binding signal (z-score),[11],-0.211
same,glycan array binding signal (z-score),[12],-0.008
same,glycan array binding signal (z-score),[13],-0.182
same,glycan array binding signal (z-score),[14],-0.07
same,glycan array binding signal (z-score),Man(a1-3)[Man(a1-6)]Man,-0.153
same,glycan array binding signal (z-score),[15],-0.192
same,glycan array binding signal (z-score),Neu5Ac(a2-3)Gal,-0.213
same,glycan array binding signal (z-score),[16],-0.207
same,glycan array binding signal (z-score),[17],-0.205
same,glycan array binding signal (z-score),[18],-0.195
same,glycan array binding signal (z-score),[19],-0.211
same,glycan array binding signal (z-score),[20],-0.222
same,glycan array binding signal (z-score),[21],-0.181
same,glycan array binding signal (z-score),Neu5Ac(a2-3)Gal(b1-4)Glc,0.285
same,glycan array binding signal (z-score),[22],-0.212
